A collection of fitness landscapes (doi:10.1038/s41467-024-54723-y)
The full ranking holds about 18,000 sequences; the median of “TetR repression strength (sort-seq, GFP reporter)” is about 0.23, and the highest 2% start at about 0.68. Some of the results follow.

What follows are sequences tested against TetR (class B, Tn10) (UniProt P04483) (assay: TetR repression strength (sort-seq, GFP reporter) (relative to tetO2 = 1); higher = stronger repression). Conditions: E. coli.
Summary of the method: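 Escherichia coli SIG10-MAX cells carried a low-copy plasmid library in which eight operator positions were randomized between a constitutive promoter and sfGFP, and TetR was expressed constitutively. After 5 h of growth at 37 °C in LB with 50 µg/mL chloramphenicol, 10^6 cells were FACS-sorted into 13 fluorescence bins, and each bin was Illumina-sequenced. Repression strength was the top bin index plus one minus the read-weighted mean bin, divided by the value for the unaltered operator. Across three independent transformations, only library members with ≥30 reads in every replicate and a CV ≤0.5 were averaged.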

UniProt P04483, sequence (P04483 whole entry): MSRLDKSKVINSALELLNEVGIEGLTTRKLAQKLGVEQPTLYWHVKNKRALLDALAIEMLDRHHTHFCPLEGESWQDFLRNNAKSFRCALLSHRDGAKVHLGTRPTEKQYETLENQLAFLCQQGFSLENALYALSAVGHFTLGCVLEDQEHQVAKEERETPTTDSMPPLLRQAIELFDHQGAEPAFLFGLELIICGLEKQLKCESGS

Sequence | TetR repression strength
TCCCGCTGAGTGTTTGAGA | 0.234
TCCCTGACAGTGATGGAGA | 0.207
TCCCGATGAGTCATGGAGA | 0.381
TCCCGTTGAGTGTTTGAGA | 0.13
TCCCATTCAGTTGGTGAGA | 0.0793
TCCCGATCAGTCTTCGAGA | 0.307
TCCCTGATAGTGATGGAGA | 0.117
TCCCCATGAGTCGATGAGA | 0.498
TCCCGCGGAGTGGACGAGA | 0.229
TCCCGACGAGTAAAGGAGA | 0.366
TCCCTCAAAGTTGGCGAGA | 0.0844
TCCCGACCAGTGCGGGAGA | 0.222
TCCCAGCTAGTGGGGGAGA | 0.291
TCCCGCGCAGTGTAAGAGA | 0.222
TCCCTGTGAGTAGCTGAGA | 0.195
TCCCGGTGAGTGTCCGAGA | 0.136
TCCCTGGCAGTACGTGAGA | 0.167
TCCCATTCAGTGGATGAGA | 0.351
TCCCGGGCAGTCAACGAGA | 0.163
TCCCGGAGAGTGGGCGAGA | 0.161
TCCCCCACAGTAAGTGAGA | 0.126
TCCCGTGGAGTGGGAGAGA | 0.184

Sequence | TetR repression strength
TCCCCAGGAGTTTGCGAGA | 0.22
TCCCGGAAAGTGTGAGAGA | 0.13
TCCCCAAAAGTGTTAGAGA | 0.219
TCCCGTAGAGTTCCAGAGA | 0.389
TCCCTTTGAGTTTCCGAGA | 0.333
TCCCTGCGAGTTATTGAGA | 0.209
TCCCATAAAGTGGTAGAGA | 0.304
TCCCGCTTAGTTTGCGAGA | 0.161
TCCCTGCTAGTGGGTGAGA | 0.329
TCCCCGGCAGTTAGTGAGA | 0.257
TCCCGATTAGTCCGAGAGA | 0.0648
TCCCAGAAAGTTATTGAGA | 0.197
TCCCCGCGAGTCGAGGAGA | 0.157
TCCCTCATAGTGCGCGAGA | 0.162
TCCCTATCAGTGCCCGAGA | 0.629
TCCCCAATAGTGCTCGAGA | 0.104
TCCCGTGTAGTCAACGAGA | 0.231
TCCCCTAGAGTGCAAGAGA | 0.552
TCCCAATGAGTTGGTGAGA | 0.213
TCCCAGCGAGTGCAGGAGA | 0.18
TCCCGTAGAGTATGAGAGA | 0.547
TCCCGCTCAGTCGATGAGA | 0.143

Sequence | TetR repression strength
TCCCGTTTAGTTTCGGAGA | 0.446
TCCCCGGGAGTGCGAGAGA | 0.322
TCCCGTTAAGTCAGTGAGA | 0.481
TCCCCGGTAGTCAGAGAGA | 0.207
TCCCGGGCAGTGTCCGAGA | 0.106
TCCCTCATAGTGTGCGAGA | 0.151
TCCCGGATAGTTTCCGAGA | 0.149
TCCCATGAAGTTCAAGAGA | 0.274
TCCCGTGGAGTCGGCGAGA | 0.202
TCCCGAACAGTCGGAGAGA | 0.119
TCCCCAACAGTACCTGAGA | 0.428
TCCCATTCAGTGGAGGAGA | 0.611
TCCCTCGTAGTAGGTGAGA | 0.0299
TCCCTGATAGTGGCTGAGA | 0.256
TCCCTTCTAGTAGAGGAGA | 0.289
TCCCCTTCAGTGGCCGAGA | 0.221
TCCCGTAGAGTGACCGAGA | 0.12
TCCCGCGGAGTGAGGGAGA | 0.196
TCCCCTCGAGTCGTGGAGA | 0.145
TCCCGCATAGTCTTTGAGA | 0.393
TCCCTTGGAGTGTATGAGA | 0.208
